# From PubChem BioAssay AID686970 (National Center for Advancing Translational Sciences (NCATS), 2013)
# The whole screen tested about 360,000 compounds, of which about 6,000 (1.7%) were called active. Inconclusive results, whose numbers are uncertain, are shown with a selection of clear calls. Calls come from the whole dose curve; as a rule, active = well fitted cell-killing curve with a large enough effect; inconclusive = small, poorly fitted or top-dose-only effect, or effect the other way; inactive = flat fitted curve, though single readings scatter. Potencies of inconclusive entries are left out as doubtful fits.
# Test: qHTS for induction of synthetic lethality in tumor cells producing 2HG: qHTS for the HT-1080-NT fibrosarcoma cell line;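 note: NT is the 2HG producing partner of a matched IDH1 knockdown line; nearly all actives have a fitted effect of over 55% in size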;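 for activity, negative = less viability: 0% = DMSO-treated cells and -100% = media-only wells without cells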
# Conditions: HT-1080-NT fibrosarcoma viability, CellTiter-Glo ATP luminescence, 48 h; activity, negative = less viability: at 46.1 µM (top of the series) unless noted
# Procedure, shortened: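 HT-1080-NT; 750 cells/well; 5% FBS RPMI; 48 h compound, 37 degrees C; CellTiter-Glo luminescence; curve fitting and curve-class assignment.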
# Potency is the fitted concentration of half-maximal effect; tags give direction and shape of the fitted curve.
SMILES,Potency,"activity, negative = less viability"
Cc1cc(F)ccc1-c1cc(C(=O)NC(C)C)[nH]n1,"inconclusive [rising, partial curve]",
CN(C(=O)c1ccc(NC(=O)Cc2ccc(NC(=O)C3CCN(C(=O)c4ccccc4)CC3)cc2)cc1)C1CC1,"inconclusive [cytotoxic, partial curve]",
CNCc1ccccc1Sc1cc(O)ccc1O,"inconclusive [cytotoxic, single point]",
O=C(c1ccccc1)c1ccc(-n2ccnc2)c([N+](=O)[O-])c1,inactive,
COc1ccccc1OCC(=O)N1CCN(C(=O)c2ccco2)CC1,inactive,
N#Cc1ccc(C(=O)N2CCCC(c3cc(C(=O)NCc4cccnc4)no3)C2)cc1 (centres undefined),"inconclusive [rising, single point]",
CCn1c(=N)n(CC(O)COc2cccc(C)c2)c2ccccc21 (centres undefined),"inconclusive [cytotoxic, single point]",
Cc1c2ccccc2c(C)c2c1ccc1ccccc12,"inconclusive [cytotoxic, single point]",
COc1cccc(C(=O)NCC(=O)N/N=C/c2cccs2)c1,inactive,
CC(C)(C)c1ccc(S(=O)(=O)N2CCN(Cc3cc4c(cc3O)OCO4)CC2)cc1,inactive,
COCCCN1C(=O)c2[nH]nc(-c3ccccc3O)c2C1c1cccc(Cl)c1 (centres undefined),active: 25.9 µM,
N=c1n(Cc2ccccc2)c2ccccc2n1CC(O)COc1ccc(Cl)cc1Cl (centres undefined),active: 29.1 µM,
Cc1cn(-c2ccc(Br)cc2)[nH]c1=O,"inconclusive [rising, partial curve, poor fit]",
CC(C)(C)C1CCc2nc(NC(=O)Cc3cn4ccsc4n3)sc2C1 (centres undefined),"inconclusive [cytotoxic, single point]",
Cc1cccc(N2CCN(C(=O)c3cc(S(=O)(=O)N4CCOCC4)cn3C)CC2C)c1 (centres undefined),inactive,
CCOC(=O)c1ccc(N=Nc2c(C)c(C#N)c(O)[nH]c2=O)cc1,inactive,
Cc1cccc(C)c1-n1nnnc1C(c1ccnc2ccccc12)N1CCN(C/C=C/c2ccccc2)CC1 (centres undefined),"inconclusive [cytotoxic, single point]",
O=[N+]([O-])c1cccc(/C=C/c2nc3ccc([N+](=O)[O-])cc3[nH]2)c1,"inconclusive [cytotoxic, single point]",
CC(C)(C)S(=O)N1Cc2cc(C(=O)NCc3ccc4c(c3)OCO4)nc(-c3cccc(-c4ccncc4)c3)c2[C@H]1CCO (some centres undefined),"inconclusive [cytotoxic, partial curve]",
CN(C)c1ccc(C(=O)Nc2ccc(S(=O)(=O)Nc3nccs3)cc2)cc1,inactive,
CC(C)C(O)(C(=O)NNc1ccccc1)C(C)C,inactive,
CC(=O)NC(C)(c1ccccc1)c1nc(-c2cccc(C(F)(F)F)c2)cs1 (centres undefined),"inconclusive [cytotoxic, single point]",
CCOC(=O)c1[nH]c(C)c(C(=O)N(C)C)c1C,inactive,
O=S(=O)(NCCNc1ncc(C(F)(F)F)cc1Cl)C(F)(F)F,"inconclusive [cytotoxic, single point]",
CCc1nc2c(OCCC3CCCCC3)cccn2c1N(C)C(=O)c1ccco1,"inconclusive [cytotoxic, single point]",

SMILES,Potency,"activity, negative = less viability"
Nc1ncnc(Nc2ccccc2)n1,inactive,
CC(C)NC(=O)N(C)C[C@H]1Oc2ccc(NC(=O)CCC(F)(F)F)cc2C(=O)N([C@H](C)CO)C[C@@H]1C,inactive,
O=C(NCC1CC1)c1ccc(-n2ccnc2)c2ccoc12,,inconclusive: 17.3%
Nn1cnnc1N/N=C/c1ccc(F)cc1,"inconclusive [cytotoxic, single point]",
COc1ccccc1NC(=O)CCn1c(=O)sc2ccccc21,"inconclusive [rising, single point]",
CC(C)Cn1c2c(c(O)c(C(=O)Nc3ncccc3O)c1=O)CCCC2,"inconclusive [cytotoxic, single point]",
O=C1CC(c2ccco2)Cc2nc(N3CCN(Cc4ccc5c(c4)OCO5)CC3)ncc21 (centres undefined),inactive,
Cc1cccc(NC(=S)NC2CCCCC2)n1,"inconclusive [cytotoxic, single point]",
Cc1c(C(c2cccc(O)c2)c2c(C)n(C)n(-c3ccccc3)c2=O)c(=O)n(-c2ccccc2)n1C,inactive,
O=C(O)/C=C/c1cnn(-c2ccccc2)c1,inactive,
CC(C)N1CCC(C)(C(=O)Nc2cccc3c2CCCC3)C1 (centres undefined),inactive,
COc1cccc(NC(=O)CSCc2cc(=O)n3nc(C4CC4)sc3n2)c1,"inconclusive [rising, single point]",
Cc1cc(C)cc(N(CCC(=O)O)S(=O)(=O)c2ccc(Cl)cc2)c1,inactive,
Nc1nc2c(ncn2[C@@H]2O[C@H](CNS(=O)(=O)c3cccnc3)[C@@H](O)[C@H]2O)c(=O)[nH]1,inactive,
NC(c1csc(Nc2cc(NCc3ccco3)ncn2)n1)c1ccccc1Cl (centres undefined),"inconclusive [cytotoxic, single point]",
C/C(=N\NC(=O)Cc1ccc(Cl)cc1)c1cccc(NC(=O)c2cccnc2)c1,"inconclusive [cytotoxic, single point]",
O=C(N/N=C/c1ccc2c(c1)OCO2)c1cc(-c2ccccc2Cl)nc2ccccc12,inactive,
O=S(OCCN1CCOCC1)C(c1ccccc1)c1ccccc1 (centres undefined),inactive,
NC(c1csc(Nc2ccc(C(=O)NCCCO)cn2)n1)c1ccccc1Cl (centres undefined),inactive,
CN(c1ccccc1)S(=O)(=O)c1cccc(NC(=O)c2cc3ccccc3oc2=O)c1,inactive,
COc1ccc(S(=O)(=O)Nc2cc3c4c(oc3c3ccccc23)CC(C)(C)CC4=O)cc1,"inconclusive [cytotoxic, single point]",
CC(C)N1CCN(Cc2ccc(-c3ccccc3)cc2)CC1CCO (centres undefined),"inconclusive [cytotoxic, partial curve]",
O=C1C2C3C=CC(C3)C2C(=O)N1c1ccc(N2CCN(c3ccccn3)CC2)c([N+](=O)[O-])c1 (centres undefined),"inconclusive [cytotoxic, single point]",
Cc1noc(C)c1COc1ccccc1C(=O)N1CCN(c2cccc(Cl)c2)CC1,active: 23.1 µM,
OCCNc1nc(NCc2ccccc2)c2ccccc2n1,"inconclusive [cytotoxic, single point]",

SMILES,Potency,"activity, negative = less viability"
COc1ccc(NS(=O)(=O)c2ccc3oc(SC4CCOC4=O)nc3c2)cc1 (centres undefined),"inconclusive [cytotoxic, single point]",
Cc1ccc(C(=O)N/C(=C/c2ccc(-c3cccc([N+](=O)[O-])c3)o2)C(=O)NCCCN(C)C)cc1,active: 14.6 µM,
CCc1ccc(/C=N/NC(=O)c2cc(-c3cccc([N+](=O)[O-])c3)n[nH]2)cc1,active: 7.31 µM,
Cc1nc(N)sc1N=Nc1ccc(Br)cc1,,inconclusive: -95.4%
COc1ccccc1/C=C1/SC(=S)N(C(C)C(=O)NC2C=CS(=O)(=O)C2)C1=O (centres undefined),inactive,
CC(=O)c1c(C)nn(CC(O)COc2ccc3c(c2)CCC3)c1C (centres undefined),"inconclusive [cytotoxic, single point]",
CCn1ccc(-c2ccccc2)c(C#N)c1=O,inactive,
Cc1ccc(S(=O)(=O)NC(Cc2ccc(Cl)cc2)C(=O)O)cc1 (centres undefined),inactive,
Cc1cccc(N2CCN(C(=O)c3cccc(N4CCCC4=O)c3)C(C)C2)c1 (centres undefined),"inconclusive [cytotoxic, full curve]",
COC(=O)c1cn[nH]c1NC(=S)Nc1ccc(C)cc1Cl,inactive,
CCOC(=O)CSc1cn2c(n1)CCC2,inactive,
Cc1nc2c(-c3ccccc3)c(C)nn2c(C)c1CC(=O)O,inactive,
O=C(Cn1cnc2ccccc2c1=O)NCCC(=O)N1CCN(c2ccccc2)CC1,inactive,
COc1ccc(/C=C2\CCCC3C2=NN(C(=O)CSc2n[nH]c(N)n2)C3c2ccc(OC)cc2)cc1 (centres undefined),"inconclusive [cytotoxic, single point]",
O=C(NCc1ccccc1)C(C1CC1)n1c(=O)c(-c2cc3ccccc3[nH]2)nc2ccccc21 (centres undefined),active: 23.1 µM,
COc1ccc(C(=O)Nc2ccc(N3CCN(C(=O)c4cccs4)CC3)cc2)cc1Br,inactive,
CCOC(=O)[C@]12CCCC=C1N(CCC1=CCCCC1)C(=O)[C@H](CC(=O)NCc1cccc(C(F)(F)F)c1)C2,"inconclusive [cytotoxic, single point]",
O=C(CN1c2ccccc2Sc2ccccc21)NNC(=S)Nc1ccc(Cl)cc1Cl,"inconclusive [cytotoxic, single point]",
CCc1cccc2c(C(=O)Cn3nnc(-c4ccc(OC)c(OC)c4)n3)c[nH]c12,"inconclusive [cytotoxic, single point]",
CCc1nc(=O)c(-c2ccccc2)c(C)n1-c1ccccc1,"inconclusive [rising, partial curve]",
Fc1ccccc1COc1ccc(Br)cc1CNCc1cccnc1,"inconclusive [cytotoxic, single point]",
CC(NC(=O)c1c(N)[nH]c(C(=O)c2ccccc2)c1-c1ccccc1Br)c1cccc2ccccc12 (centres undefined),"inconclusive [cytotoxic, single point]",
CC(C(=O)Nc1ccc(O)c(C(=O)O)c1)N1C(=O)/C(=C/c2cccs2)SC1=S (centres undefined),"inconclusive [cytotoxic, partial curve]",
Cc1ccccc1NC(=O)Cc1nc(COC(=O)c2ncc(Cl)c(Cl)c2Cl)cs1,inactive,
